Results taken from PubChem BioAssay AID720709 (National Center for Advancing Translational Sciences (NCATS), 2013).
Among all 360,000 compounds or so, about 520 (0.14%) were called active. The inconclusive results got no clear call from the source; some entries with a clear call stand among them for comparison. Calls come from the whole dose curve; as a rule, active = well fitted inhibition curve with a large enough effect; inconclusive = small, poorly fitted or top-dose-only effect; inactive = no such curve, though single readings can be large or run the other way. A potency beside an inconclusive call is a rough fit, not a confirmed value.

These compounds were tested against Rap guanine nucleotide exchange factor 3 (Homo sapiens) (UniProt O95398) (assay: qHTS for Antagonist of cAMP-regulated guanine nucleotide exchange factor 3 (EPAC1): primary screen). Conditions: EPAC1 GEF assay, Rap1b-BODIPY-GDP exchange fluorescence; activity change, negative = inhibition: at 115 µM (top of the series).
Note: nearly all actives have a fitted effect of over 50% in size.
Potency is the fitted concentration of half-maximal effect; tags give direction and shape of the fitted curve.
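Throughout, for activity change, negative = inhibition: plate controls were vehicle for no effect and positive control for full effect.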

Chain of UniProt O95398 (O95398 whole entry, looked up): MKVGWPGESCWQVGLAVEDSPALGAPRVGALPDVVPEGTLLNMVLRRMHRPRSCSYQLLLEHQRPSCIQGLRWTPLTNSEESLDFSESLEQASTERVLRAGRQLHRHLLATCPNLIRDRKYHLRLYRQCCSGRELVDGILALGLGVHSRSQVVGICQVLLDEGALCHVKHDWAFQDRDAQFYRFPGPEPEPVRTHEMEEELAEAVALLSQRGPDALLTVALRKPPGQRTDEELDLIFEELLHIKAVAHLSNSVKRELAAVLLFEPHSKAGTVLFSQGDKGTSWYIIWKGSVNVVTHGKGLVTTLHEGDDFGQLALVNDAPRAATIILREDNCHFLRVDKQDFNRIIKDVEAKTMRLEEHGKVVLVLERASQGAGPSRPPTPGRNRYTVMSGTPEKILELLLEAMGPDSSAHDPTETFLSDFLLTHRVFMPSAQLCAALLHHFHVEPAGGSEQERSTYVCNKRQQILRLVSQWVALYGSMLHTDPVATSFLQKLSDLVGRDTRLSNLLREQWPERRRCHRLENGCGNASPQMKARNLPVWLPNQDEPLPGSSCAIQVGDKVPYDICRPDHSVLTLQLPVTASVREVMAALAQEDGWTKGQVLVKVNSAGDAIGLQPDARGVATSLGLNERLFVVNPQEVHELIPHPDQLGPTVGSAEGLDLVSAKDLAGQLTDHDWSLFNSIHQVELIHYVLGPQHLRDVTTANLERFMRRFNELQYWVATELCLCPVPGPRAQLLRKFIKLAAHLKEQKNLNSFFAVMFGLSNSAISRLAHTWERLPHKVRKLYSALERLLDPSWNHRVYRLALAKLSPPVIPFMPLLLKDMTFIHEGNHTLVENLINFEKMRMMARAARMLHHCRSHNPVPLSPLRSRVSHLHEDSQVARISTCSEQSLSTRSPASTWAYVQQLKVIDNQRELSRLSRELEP

Potency, inconclusive:
O=S(=O)(Nc1ccc(-n2cnnn2)cc1)c1ccc(F)c(F)c1F 89.1 µM [inhibitor, single point]
CCOC(=O)c1sc(NC(=O)CSc2ncccn2)nc1C 44.7 µM [inhibitor, full curve, poor fit]
CC(=O)Oc1c(Br)cc(N(C(C)=O)S(=O)(=O)c2ccccc2)c2ccccc12 56.2 µM [inhibitor, partial curve]
Cn1c(CCN2CCN(c3ccccn3)CC2)nc2cc(NC(=O)COc3ccc([N+](=O)[O-])cc3)ccc21 50.1 µM [inhibitor, partial curve]
CCc1sc(C(=O)Nc2ccc3c(c2)OCO3)cc1C 79.4 µM [inhibitor, single point]
Cc1ccc(S(=O)(=O)N/N=C/c2cc([N+](=O)[O-])ccc2O)cc1[N+](=O)[O-] 56.2 µM [inhibitor, partial curve]
O=C(O)COc1ccc(/C=C/C(=O)c2ccc3ccccc3c2)cc1 35.5 µM [inhibitor, partial curve]
O=C1C(=Cc2ccc(Br)o2)C(=O)c2ccccc21 28.2 µM [inhibitor, full curve]
C/C(=N\OCC(=O)Nc1ccc(OC(F)(F)F)cc1)c1ccc2c(c1)OCCO2 39.8 µM [inhibitor, partial curve]
Cc1ccc(C)c(-c2cc(C(=O)N/N=C/c3cccnc3)c3ccccc3n2)c1 17.8 µM [inhibitor, full curve]
COc1ccc(OC(=O)COc2cc(C)ccc2C)cc1 89.1 µM [inhibitor, single point]
NC(=O)OCC(COC(N)=O)c1ccccc1 100 µM [inhibitor, partial curve]
O=C(O)c1ccc(COc2ccc3c(c2)CCC3)cc1 89.1 µM [inhibitor, partial curve, poor fit]
Cc1ccc(OCC(=O)Nc2ccc(CN3CCCCC3)cc2)c(C)c1 44.7 µM [inhibitor, partial curve, poor fit]
Cc1c(OCC(=O)NC(Cc2c[nH]c3ccc(O)cc23)C(=O)O)ccc2c3c(c(=O)oc12)CCC3 (stereo not drawn) 100 µM [inhibitor, single point]
Cc1ncc(CO)c(/C=N/NC(=O)c2cc(Br)ccc2O)c1O 22.4 µM [inhibitor, partial curve, poor fit]
O=C(NCc1nc(-c2ccc(C(F)(F)F)cc2)no1)Nc1cc(Cl)cc(Cl)c1 50.1 µM [inhibitor, partial curve]
CCN1C(=O)C(CC(=O)Nc2c(C)cccc2C)Nc2cc(S(=O)(=O)N(C)C)ccc21 (stereo not drawn) 100 µM [inhibitor, single point]
CCSc1nnc(NC(=O)C2CCN(S(=O)(=O)c3ccccc3C(F)(F)F)CC2)s1 11.2 µM [inhibitor, single point]
COc1cc(/C=N/NC(=O)c2ccccc2O)ccc1OCC(=O)Nc1ccccc1 63.1 µM [inhibitor, partial curve, poor fit]
c1ccc(OCc2nnc3sc(C4COc5ccccc5O4)nn23)cc1 (stereo not drawn) 50.1 µM [inhibitor, partial curve]
Cc1cc(/C=C\c2ccc3cc(N(C)C)ccc3[n+]2C)c(C)n1-c1ccccc1 10 µM [inhibitor, full curve]
C/C(CC(=O)Nc1ccc(Cl)c(C(F)(F)F)c1)=N\NC(=O)c1ccccc1O 89.1 µM [inhibitor, single point]
Cc1ccc(S(=O)(=O)/N=C2/NC(=O)/C(=C/c3cc([N+](=O)[O-])ccc3O)S2)cc1 28.2 µM [inhibitor, full curve]
O=C(CSc1nnc(COc2ccc(Cl)cc2)o1)N1CCN(c2ccccc2)CC1 112 µM [inhibitor, partial curve, poor fit]
CSc1cccc(NC(=O)C2CCN(S(=O)(=O)c3ccc4c(c3)NC(=O)CO4)CC2)c1 3.55 µM [inhibitor, full curve]
O=c1[nH][nH]c2c1[C@H](c1ccc(Cl)cc1)O[C@H](C1CCCC1)C2 39.8 µM [inhibitor, partial curve]
Cc1ccc(C)c(Cn2c(CN(C)Cc3ccccc3)nc3c2c(=O)n(C)c(=O)n3C)c1 28.2 µM [inhibitor, single point]
CCOc1ccc(CNC(=O)C2CCN(c3nnc(C)c4c(C)n(-c5ccc(C)cc5)nc34)CC2)cc1 28.2 µM [inhibitor, partial curve]
N#CNC(=Nc1cccc(F)c1)SCc1cccc(F)c1 100 µM [inhibitor, partial curve, poor fit]
O=C(/C=C/c1ccco1)Nc1ccccc1C(=O)Nc1cccc(C(=O)O)c1 100 µM [inhibitor, single point]
COc1cccc(NC(=O)C(c2ccccc2)N2CCCCC2)c1 (stereo not drawn) 39.8 µM [inhibitor, full curve, poor fit]
CC(C)CC1(C(=O)O)NC(c2ccccc2O)C2C(=O)N(C(C)C)C(=O)C21 (stereo not drawn) 39.8 µM [inhibitor, single point]
O=C(Nc1ccc(CN2CCCCC2)cc1)c1sc2ccccc2c1Cl 112 µM [inhibitor, partial curve, poor fit]
Cn1c(SCc2ccc(C(C)(C)C)cc2)nnc1C1COc2ccccc2O1 (stereo not drawn) 17.8 µM [inhibitor, full curve]
CCN(CC)c1nc(Nc2ccccc2)nc(Oc2ccc(C(=O)OC)cc2)n1 79.4 µM [inhibitor, single point]
COc1ccc(OCC(=O)Nc2ccc(N3CCN(C(=O)c4ccccc4C)CC3)cc2)cc1 22.4 µM [inhibitor, single point]
COCCNc1nnc(Cc2ccc(Cl)cc2)c(=O)[nH]1 100 µM [inhibitor, single point]
CCC(C)NC(=O)Cn1cc(S(=O)(=O)N2CCN(c3ccccc3F)CC2)c2ccccc2c1=O (stereo not drawn) 50.1 µM [inhibitor, single point]
COc1ccc(NC(=O)CN(C)C(=O)Cc2ccc3c(c2)OCCO3)cc1 89.1 µM [inhibitor, partial curve]
NC(=NC(=O)c1cccc(C(F)(F)F)c1)c1ccc(C(F)(F)F)cn1 50.1 µM [inhibitor, partial curve]
C=CCNC(=O)c1ccc(N(Cc2ccccc2)S(C)(=O)=O)cc1 50.1 µM [inhibitor, partial curve, poor fit]
Cc1nnc(SCC(=O)Nc2sccc2C#N)s1 89.1 µM [inhibitor, single point]
CCOC(=O)[C@]12CCCC=C1N(Cc1ccc(Cl)cc1Cl)C(=O)[C@H](CC(=O)NCCCOC)C2 70.8 µM [inhibitor, partial curve, poor fit]
COc1ccc2[nH]c(=O)c(CN(CC3CCCO3)S(=O)(=O)c3ccccc3F)cc2c1 (stereo not drawn) 25.1 µM [inhibitor, full curve, poor fit]
O=C1CC[C@@H](CN(Cc2ccccn2)Cc2nc(Cc3ccccc3)no2)N1 2.82 µM [inhibitor, full curve, poor fit]

Activity change, negative = inhibition, inconclusive:
Cc1nc2sccn2c(=O)c1S(=O)(=O)NCC1CCN(Cc2ccccc2Cl)CC1 -7.69% [inhibitor]
COc1cc2c(cc1OC)C(c1cccc([N+](=O)[O-])c1)N(C(=O)CCC(=O)O)CC2 (stereo not drawn) -30.3% [inhibitor]
Cc1cc2cc(CNC(=O)c3ccc(S(=O)(=O)N(C)C)cc3)ccc2n1C -31.6% [inhibitor]
CC1=C(C(=O)N(C(C)C)C(C)C)CC(CC(=O)NCc2cccc3ccccc23)C(=O)N1Cc1ccccc1 (stereo not drawn) -15.9% [inhibitor]

Activity change, negative = inhibition, inactive:
CCCN1C(=O)/C(=C/C=C2\N(CC)c3ccccc3C2(C)C)SC1=S 16.6%
COc1ccc2oc(=N)c(C(=O)Nc3ccccc3)cc2c1 0%
COc1cc(/C=C2/SC(=Nc3ccc(O)cc3)NC2=O)ccc1O -12.8%
Cc1ccc(NC(=O)CS(=O)CC(=O)N2CCN(C3CCCC3)CC2)cc1 (stereo not drawn) -12%
Cc1nc2ccc(NC(=O)[C@H](C)N3C(=O)C4CC=CCC4C3=O)cc2s1 (stereo partly drawn) -3.07%
CCOc1ccc(CCNC(=O)c2ccc3nc(CC)c(CC)nc3c2)cc1 -12.4%
CCSc1nnc(NC(=O)c2ccccc2C)s1 7.35%
O=C(COc1ccc(-c2ccccc2)cc1)N1CCN(S(=O)(=O)Cc2ccccc2)CC1 -19.8%
CC(=O)c1ccc(NC(=O)Nc2cccc3ccccc23)cc1 12.8%
CN(Cc1ccco1)c1ncnc2ccc(-c3ccc4c(c3)OCO4)cc12 -11%
C[C@H](CO)N1C[C@H](C)[C@H](CN(C)S(=O)(=O)c2cccc(F)c2)OCc2ccccc2-c2c(n(C)c3ccccc23)C1=O -21.6%
CC(=O)N(c1cccc(C)c1)C1SC(=O)N(c2ccccc2)C1=O (stereo not drawn) -1.85%
COC(=O)c1c(-c2cccnc2)csc1NC(=O)c1ccc2c(c1)OCO2 -13.7%
